The structures appear in SMILES notation. The whole screen tested about 45,000 compounds, of which about 200 (0.44%) were called active. Roughly 7% stayed inconclusive and do not appear here. Calls follow the shape of the dose curve; as a rule, active = well fitted activation curve with a large enough effect; inconclusive = small, poorly fitted or top-dose-only effect; inactive = no such curve, though single readings can be large or run the other way. This is one part of the list.

This experiment can be described thus: qHTS of TDP-43 Inhibitors: NCGC Sytravon Library Screen. Also: 0% is about no effect; nearly all actives have a fitted effect of over 55% in size. Particulars: yeast TDP-43 toxicity rescue, BacTiter-Glo growth, 24 h; series mostly up to 46.1 µM; growth rescue (activation): at the top concentration. In short, it runs like this: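 TDP-43-expressing yeast, pregrown in raffinose, seeded at OD600 0.02 in galactose medium with compound for 24 hr at 30 deg C. Growth read by BacTiter-Glo luminescence, so rescue of toxicity appears as activation.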
Turning to `Cc1ccc(S(=O)(=O)N2CCOCC2)cc1NC(=O)COc1ncnc2ccccc12`, the “growth rescue (activation)” value was inactive: -14.6%. Next, `CCCN1Cc2cccc(C(=O)Nc3ccc(CN4CCCC4)cc3)c2C1=O`: inactive: -3.28%. As to `Cc1ccc(N(CC(=O)NCc2ccccc2)C(=O)c2csnn2)c(C)c1`, the “growth rescue (activation)” value was inactive: -8.05%.

Turning to `CCCn1c(=O)[nH]c(=O)c2c1nc(-c1ccccc1)n2CCN1CCOCC1`, the “growth rescue (activation)” value is inactive: 18.2%.

As for `O=C(O)c1ccc(NCc2nc3ccccc3n2Cc2ccccc2)cc1`, the “growth rescue (activation)” value is inactive: 26.5%. Next, `COc1ccccc1-n1cc(-c2ccc([N+](=O)[O-])cc2)[nH]c1=S`: inactive: -4.21%; `Cc1nc(NC2=NCN(CCCN3CCOCC3)CN2)nc2c(C)cccc12`: inactive: 5.36%; `N#Cc1ccccc1NC(=O)CN(Cc1ccccc1)Cc1ccccc1`: inactive: -7.13%. Next, `OCC1CCCN(Cc2cn(Cc3ccccc3)nc2-c2cc3ccccc3o2)C1` (centres undefined): inactive: 2.11%; `CC1=NOC(=O)/C1=C\c1ccc(-c2ccc(Cl)cc2Cl)o1`: inactive: 26.9%; `Cc1ccc(NC(=O)Cn2c(CCC(=O)O)ccc2-c2cccs2)cc1Cl`: inactive: 9.12%. For `COc1ccc(/C=C/C(=O)OCC(=O)Nc2cc(C(N)=O)cc(C(N)=O)c2)cc1`, the “growth rescue (activation)” value is inactive: 14.2%. `CCN(CC(=O)Nc1ccccc1C(=O)NC1CC1)Cc1cccs1`: the “growth rescue (activation)” value is inactive: 14.9%. As to `Cc1noc(C)c1C(=O)OCC(=O)/C=C1/N(C)c2ccccc2C1(C)C`, the “growth rescue (activation)” value is inactive: -10.1%.

As to `CCOc1ccc(S(=O)(=O)Nc2ccccc2C(=O)N/N=C/c2c(OC)ccc3ccccc23)cc1`, the “growth rescue (activation)” value is inactive: -21.3%. Next, `Cc1nc(NCC2CCCO2)[nH]c(=O)c1CCC(C)C` (centres undefined): inactive: -10.2%; `O=C(c1ccc2c(=O)n(Cc3ccccc3)c(=S)[nH]c2c1)N1CCOCC1`: inactive: 10.4%; `N#Cc1ccc(NC(=O)COC(=O)CCNS(=O)(=O)c2ccccc2)cc1`: inactive: 16.7%.

With `CCOC(=O)C1CCN(C(=S)NC2CCCC2)CC1`, the “growth rescue (activation)” value was inactive: 19.6%. With `FC(F)(F)c1ccc(Cl)c(NC(=S)N/N=C/c2ccccc2C(F)(F)F)c1` the figure was inactive: 7.55%. Next, `CCOC(=O)CC(NS(=O)(=O)c1ccc2[nH]cc(C(=O)O)c(=O)c2c1)c1ccc(OCC)c(OC)c1` (centres undefined): inactive: -2.95%; `COc1ccc(OC)c(N(C(=O)c2ccco2)C(C(=O)NC2CCCC2)c2cc(OC)c(OC)c(OC)c2)c1` (centres undefined): inactive: -0.351%; `O=C(NCC1(c2ccccc2)CCCC1)c1ccco1`: inactive: -1.27%.

As for `CCN1CCN(CCOc2ccccc2OCc2ccccc2)CC1`, the “growth rescue (activation)” value is inactive: -0.103%. Next, `Cc1noc(C)c1C(=O)N1CCC(CO)(Cc2ccccc2)CC1`: inactive: 15.7%. With `O=C(CN(C(=O)c1csnn1)c1ccccc1)NCc1ccc2c(c1)OCO2` the figure was inactive: -1.02%; with `Brc1ccc2c(c1)[C@H]1OCC[C@H]1[C@@H](c1cccs1)N2`, inactive: 23.9%; with `COc1ccc(/C=C/C(=O)N2CCC(c3ccccc3)C2)cc1` (centres undefined), inactive: 13.4%. Next, `Cc1nonc1CN(C)C(=O)CC1C(=O)NCCN1Cc1cccc(C(F)(F)F)c1` (centres undefined): inactive: 5.79%.

These data come from PubChem BioAssay AID1347073 (National Center for Advancing Translational Sciences (NCATS), 2019).
